# The list shows a part of the results. Sequences were assembled here from the parent chain. Inactive controls read about 0.05.
# B1: TEV protease; numbered along this chain (parent)
# chain: MGESLFKGPRDYNPISSSICHLTNESDGHTTSLYGIGFGPFIITNKHLFRRNNGTLVVQSLHGVFKVKDTTTLQQHLVDGRDMIIIRMPKDFPPFPQKLKFREPQREERICLVTTNFQTKSMSSMVSDTSCTFPSGDGIFWKHWIQTKDGQCGSPLVSTRDGFIVGIHSASNFTNTNNYFTSVPKNFMELLTNQEAQQWVSGWRLNADSVLWGGHKVFMVKPEEPFQPVKEATQL
# Variants of: B1
# Assay: raw area under fraction-flipped curve 0-4 h after induction (AUC4h, not background-subtracted), DNA-recorder readout of cleavage of the substrate (dimensionless); higher = more cleavage of the substrate by the protease variant
# Conditions: temperature: 34 °C; time window: 0-4 h after rhamnose induction
# 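Further: Bxb1 expression induced with 0.2% (w/v) L-rhamnose at OD600 near 0.5, cultures sampled hourly, flipped fraction per protease–substrate barcode pair counted by paired-end Illumina sequencing.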
Variant,area with substrate ENLYFQF,area with substrate ENLYFQI,area with substrate ENLYFQK,area with substrate ENLYFQL,area with substrate ENLYFQM,area with substrate ENLYFQR,area with substrate ENLYFQS,area with substrate ENLYFQY,area with substrate ENLYFQN,area with substrate ENLYFQT,area with substrate ENLYFQV,area with substrate ENLYFQW,area with substrate ENLYFQH,area with substrate ENLYFQP,area with substrate ENLYFQG
MGESLFKGPRDYNPISSSICHLTNESDGHTTSLYGIGFGPFIITNKHLFRRNNGTLVVQSLHGVFKVKDTTTLQQHLVDGRDMIIIRMPKDFPPFPQKLKFREPQREERICLVTTNFQTKSMSSMVSDTSCTFPSGDGIFWKHWIQTKDGQCGSPLVSTRDGFIVGIHSASNFTNTNNYFTSVPKNFMELLTNQEAQQWVSGWRLNADSVLWGGTKVFMVKPEEPFQPVKEATQL [H215T],0.118,0.057,0.0668,0.0692,0.0727,0.0861,0.0652,0.0453,–,–,–,–,–,–,–
MGESLFKGPRDYNPISSSICHLTNESDGHTTSLYGIGFGPFIITNKHLFRRNNGTLVVQSLHGVFKVKDTTTLQQHLVDGRDMIIIRMPKDFPPFPQKLKFREPQREERIELVTTNFQTKSMSSMVSDTSCTFPSGDGIFWKHWIQTKDGQCGSPLVSTRDGFIVGIHSASNFTNTNNYFTSVPKNFMELLTNQEAQQWVSGWRLNADSVLWGGHKVFMVKPEEPFQPVKEATQL [C111E],0.0664,0.04,0.0612,0.0696,–,–,0.0891,–,0.106,0.0575,0.0553,0.0688,–,–,–
MGESLFKGPRDYNPISSSICHLTNESDGHTTSLYGIGFGPFIITNKHLFRRNNGTLVVQSLHGVFKVKDTTTLQQHLVDGRDMIIIRMPKDFPPFPQKLKFREPQREERICLVTTNFQTKSMSSMVSDTSCTFPSGDGIFWKHWIQTKDGQCGSPLVSTRDGFIVGIHSASNFTNTNNYFTSVPKNFMELLTNQEAQQWVSGFRLNADSVLWGGHKVFMVKPEEPFQPVKEATQL [W203F],0.0537,–,0.0523,0.0536,0.0834,–,0.081,–,0.0597,–,0.0592,–,0.0612,0.0621,–
MGESLFKGPRDYNPISSSICHLTNESDGHTTSLYGIGFGPFIITNKHLFRRNNGTLVVQSLHGVFKVKDTTTLQQHLVDGRDMIIIRMPKDFPPFPQKLKFREPQREERICLVTTNFQTKSMSSMVSDTSCTFPSGDGIFWKHWIQTKDGQCGSPLVSTRDGFIVGIHSASNFTNTNNYFNSVPKNFMELLTNQEAQQWVSGWRLNADSVLWGGHKVFMVKPEEPFQPVKEATQL [T181N],0.0552,–,–,–,–,–,0.0681,–,–,0.0702,–,–,–,0.0597,–
MGESLFKGPRDYNPISSSICHLTNESDGHTTSLYGIGFGPFIITNKHLFRRNNGTLVVQSLHGVFKVKDTTTLQQHLVDGRDMIIIMMPKDFPPFPQKLKFREPQREERICLVTTNFQTKSMSSMVSDTSCTFPSGDGIFWKHWIQTKDGQCGSPLVSTRDGFIVGIHSASNFTNTNNYFTSVPKNFMELLTNQEAQQWVSGWRLNADSVLWGGHKVFMVKPEEPFQPVKEATQL [R87M],0.0857,0.0457,0.0678,0.0667,–,–,0.114,–,0.0829,–,–,0.0684,–,–,–
MGESLFKGPRDYNPISSSICHLTNESDGHTTSLYGIGFGPFIITNKHLFRRNNGTLVVQSLHGVFKVKDTTTLQQHLVDGRDMIIIRMPKDFPPFPQKLKFREPQREERICLVTTNFQTKSMSSMVSDTSCTSPSGDGIFWKHWIQTKDGQCGSPLVSTRDGFIVGIHSASNFTNTNNYFTSVPKNFMELLTNQEAQQWVSGWRLNADSVLWGGHKVFMVKPEEPFQPVKEATQL [F133S],0.0545,0.0632,–,0.0827,–,0.0593,0.103,–,–,0.0608,–,0.0624,0.0926,–,0.11
MGESLFKGPRDYNPISSSICHLTNESDGHTTSLYGIGFGPFIITNKHLFRRNNGTLVVQSLHGVFKVKDTTTLQQHLVDGRDMIIIRMPKDFPPFPQKLKFREPQREERICLVTTNFQTKSMSSMVSDTSCTFPSGDGIFWKHWIQTKDGQCGSPLVSTRDGFIVGIHSASNFTNTNNYFTSVPKNFMELLTNQEAQQWVSGWRLNADSVLWGTHKVFMVKPEEPFQPVKEATQL [G214T],0.0838,–,–,–,–,0.0562,0.0853,–,0.0548,–,–,–,0.0694,–,0.0961
MGESLFKGPRDYNPISSSICHLTNESDGHTTSLYGIGFGPFIITNKHLFRRNNGTLVVQSLHGVFKVKDTTTLQQHLVDGRDMIIIRMPKDFPPFPQKLKFREPQREERICLVTTNFQTKSMSSMVSDTSCTFPSGDGIFWKHWIQTKDGQCGSPLVSTRDGFIVGIHSASNFTNTRNYFTSVPKNFMELLTNQEAQQWVSGWRLNADSVLWGGHKVFMVKPEEPFQPVKEATQL [N177R],0.0782,0.0618,0.0708,0.0588,–,0.0765,0.135,–,0.0914,0.0491,–,–,0.1,–,–
MGESLFKGPRDYNPISSSICHLTNESDGHTTSLYGIGFGPFIITNKHLFRRNNGTLVVQSLHGVFKVKDTTTLQQHLVDGRDMIIIRMPKDFPPFPQKLKFREPQREERICLVTTNFQTKSMSSMVSDTSCTFPSGDGKFWKHWIQTKDGQCGSPLVSTRDGFIVGIHSASNFTNTNNYFTSVPKNFMELLTNQEAQQWVSGWRLNADSVLWGGHKVFMVKPEEPFQPVKEATQL [I139K],0.0739,0.0544,0.0522,0.0638,0.0319,0.0463,0.1,0.0662,0.109,–,0.0563,–,0.0786,–,0.0788
MGESLFKGPRDYNPISSSICHLTNESDGHTTSLYGIGFGPFIITNKHLFRRNNGTLVVQSLHGVFKVKDTTTLQQHLVDGRSMIIIRMPKDFPPFPQKLKFREPQREERICLVTTNFQTKSMSSMVSDTSCTFPSGDGIFWKHWIQTKDGQCGSPLVSTRDGFIVGIHSASNFTNTNNYFTSVPKNFMELLTNQEAQQWVSGWRLNADSVLWGGHKVFMVKPEEPFQPVKEATQL [D82S],–,0.0571,0.0532,0.0661,0.0453,0.0721,0.0548,–,0.0548,–,–,0.069,0.0627,0.0574,0.0402

# From the supplement of paper PMC12217912
